Source: the supplement of paper PMC9135407
Several values for one entry are separate records, joined by “and”; a condition that tells them apart may be missing. Equal values may be shown once. Where a name gives a salt, the structure may show the parent alone. About 620 (11%) of roughly 5,800 compounds showed activity.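 Rule for the calls: active = score above a cut-off or among the top three wells of a plate; in these data no inactive exceeds 0.85.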 Only a part is listed here, and it is no random draw.

Tested on: primary human hepatic stellate cells (donor 1)
Experiment: scaled lipid accumulation score (0 = DMSO-like, 1 = nortriptyline-like); higher = stronger HSC inactivation (lipid re-accumulation), active = hit call of the paper
Conditions: 48 h
[1] = library stock concentration: 10 mM
[2] = library stock concentration: 3.33 mM
[3] = library stock concentration: 1 mM
[4] = library stock concentration: 80 uM
[5] = library stock concentration: 400 uM
[6] = library stock concentration: 2 mM
[7] = library stock concentration: 4.5 mM

NCCC[C@H](N)C(=O)O
scaled lipid accumulation score [1]: inactive: 0.09

CC(C)n1nc(-c2cc3cc(O)ccc3[nH]2)c2c(N)ncnc21
scaled lipid accumulation score [2]: inactive: 0.1
scaled lipid accumulation score [1]: inactive: 0.011

C1=CCOCc2cc(ccc2OCCN2CCCC2)Nc2nccc(n2)-c2cccc(c2)COC1 [Pacritinib]
scaled lipid accumulation score [1]: active: 0.932

CCOC(=O)C1=C(C)NC(C)=C(C(=O)OCC)C1c1c(F)c(F)c(F)c(F)c1F [Nemadipine-A]
scaled lipid accumulation score [1]: inactive: 0.282

NC(=O)N1c2ccccc2C=Cc2ccccc21 [Carbamazepine]
scaled lipid accumulation score: inactive: ≤ 0
scaled lipid accumulation score [2]: inactive: 0.025
scaled lipid accumulation score [1]: inactive: ≤ 0 and inactive: 0.28

NC(=O)N1c2ccccc2C=Cc2ccccc21
scaled lipid accumulation score [1]: inactive: ≤ 0

O=c1cc(-c2ccc(O)cc2)oc2cc(O)cc(O)c12 [Apigenin]
scaled lipid accumulation score: inactive: ≤ 0
scaled lipid accumulation score [2]: inactive: 0.01
scaled lipid accumulation score [1]: inactive: ≤ 0 and inactive: ≤ -0.006 and inactive: ≤ -0.008

CO[C@H]1/C=C/O[C@@]2(C)Oc3c(C)c(O)c4c(c3C2=O)C2=NC3(CCN(CC(C)C)CC3)NC2=C(NC(=O)/C(C)=C\C=C\[C@H](C)[C@H](O)[C@@H](C)[C@@H](O)[C@@H](C)[C@H](OC(C)=O)[C@@H]1C)C4=O [Rifabutin]
scaled lipid accumulation score: inactive: ≤ 0
scaled lipid accumulation score [1]: inactive: ≤ 0

CO[C@H]1/C=C/O[C@@]2(C)Oc3c(C)c(O)c4c(c3C2=O)C2=NC3(CCN(CC(C)C)CC3)NC2=C(NC(=O)/C(C)=C\C=C\[C@H](C)[C@H](O)[C@@H](C)[C@@H](O)[C@@H](C)[C@H](OC(C)=O)[C@@H]1C)C4=O
scaled lipid accumulation score [1]: inactive: ≤ 0

C[C@H](NC(=O)c1sccc1OCc1ccc(Cl)cc1)c1ccccc1
scaled lipid accumulation score [1]: inactive: ≤ 0

CCCCC[C@H](O)/C=C/[C@@H]1[C@H](C/C=C\CCCC(=O)O)[C@@H](O)C[C@H]1O [8-iso Prostaglandin F2.alpha.]
scaled lipid accumulation score [3]: inactive: ≤ 0

CCCCCCCCCCCCCCCC(=O)NC(C)C [Palmitoyl N-Isopropylamide]
scaled lipid accumulation score [3]: inactive: ≤ 0

CC(Cc1ccccc1)Nc1ncnc2c1ncn2C1OC(CO)C(O)C1O (stereo not drawn) [R(-)-N6-(2-Phenylisopropyl)adenosine]
scaled lipid accumulation score [1]: inactive: ≤ -0.055

c1cnc2cc3c(cc2n1)[C@@H]1CNC[C@H]3C1 [Varenicline tartrate]
scaled lipid accumulation score [1]: inactive: ≤ 0

C[C@@H](N)[C@H]1CC[C@H](C(=O)Nc2ccncc2)CC1
scaled lipid accumulation score [4]: inactive: ≤ -0.009
scaled lipid accumulation score [5]: inactive: ≤ -0.009
scaled lipid accumulation score [6]: inactive: ≤ -0.001
scaled lipid accumulation score [2]: inactive: 0.053
scaled lipid accumulation score [1]: inactive: ≤ 0 and inactive: 0.719 and inactive: 0.14
scaled lipid accumulation score (library stock concentration: 20.2 mM): inactive: ≤ -0.012

CN1CCC[C@@H]1CCO[C@](C)(c1ccccc1)c1ccc(Cl)cc1 [Clemastine fumarate]
scaled lipid accumulation score (library stock concentration: 5.8 mM): active: 0.885

NC[C@H]1O[C@@H](n2cnc3c(N)ncnc32)[C@H](O)[C@@H]1O [5'-Amino-5'-deoxyadenosine p-toluenesulfonate salt]
scaled lipid accumulation score [1]: inactive: ≤ 0

O=C(Cn1ccnc1[N+](=O)[O-])NCCO [Etanidazole]
scaled lipid accumulation score: inactive: ≤ 0
scaled lipid accumulation score (library stock concentration: 9.3 mM): inactive: ≤ 0

CCc1cc(C(C)=O)c(O)cc1OCCCCCC(C)(C)c1nn[nH]n1
scaled lipid accumulation score [3]: inactive: 0.055
scaled lipid accumulation score [1]: inactive: ≤ -0.001

CC(=O)OCC(COC(C)=O)OC(C)=O [Triacetin]
scaled lipid accumulation score (library stock concentration: 9.2 mM): inactive: ≤ 0
scaled lipid accumulation score [1]: inactive: ≤ 0

CC/C=C\C/C=C\C/C=C\CCCCCCCC(=O)NCCO [.alpha.-Linolenoyl Ethanolamide]
scaled lipid accumulation score [3]: inactive: 0.006

Cc1cc(C)c(N(Cc2ccccc2)S(=O)(=O)c2ccc(OCCNC(=O)c3cc4ccccc4o3)cc2)c(C(=O)NO)c1
scaled lipid accumulation score [1]: inactive: ≤ -0.001

CN1CC[C@H](c2c(O)cc(O)c3c(=O)cc(-c4ccccc4Cl)oc23)[C@H](O)C1 [Flavopiridol HCl]
scaled lipid accumulation score [2]: inactive: 0.286
scaled lipid accumulation score [1]: inactive: 0.132

CN1CC[C@H](c2c(O)cc(O)c3c(=O)cc(-c4ccccc4Cl)oc23)[C@H](O)C1
scaled lipid accumulation score [5]: inactive: 0.4
scaled lipid accumulation score [6]: inactive: 0.203
scaled lipid accumulation score [1]: inactive: ≤ -0.005

CN1CC[C@H](c2c(O)cc(O)c3c(=O)cc(-c4ccccc4Cl)oc23)[C@H](O)C1 [Flavopiridol]
scaled lipid accumulation score [4]: inactive: 0.406
scaled lipid accumulation score [5]: inactive: 0.315
scaled lipid accumulation score [6]: inactive: 0.225
scaled lipid accumulation score [1]: inactive: 0.265

CC(N)=O [Acetamide]
scaled lipid accumulation score [1]: inactive: ≤ 0

COc1ccc(-c2cc(=O)c3c(O)cc(O)cc3o2)cc1O [Diosmetin]
scaled lipid accumulation score [2]: inactive: 0.016
scaled lipid accumulation score [1]: inactive: ≤ 0

CCCCCCCCCCCCCCCCOCC(CO)OC(C)=O (configuration not stated) [1-Hexadecyl-2-O-acetyl-glycerol]
scaled lipid accumulation score [3]: inactive: 0.035

Nc1nc(Cl)nc2c1ncn2[C@@H]1O[C@H](CO)[C@@H](O)[C@@H]1F [Clofarabine]
scaled lipid accumulation score [2]: inactive: ≤ 0
scaled lipid accumulation score (library stock concentration: 6.6 mM): inactive: ≤ 0
scaled lipid accumulation score [1]: inactive: ≤ 0 and inactive: 0.031

O=C1CN2Cc3c(ccc(Cl)c3Cl)N=C2N1
scaled lipid accumulation score [1]: inactive: ≤ 0

O=C1CN2Cc3c(ccc(Cl)c3Cl)N=C2N1 [Anagrelide hydrochloride]
scaled lipid accumulation score (library stock concentration: 6.8 mM): inactive: ≤ 0

O=C1CN2Cc3c(ccc(Cl)c3Cl)N=C2N1 [Anagrelide HCl]
scaled lipid accumulation score [2]: inactive: 0.074
scaled lipid accumulation score [1]: inactive: 0.58

O=C1CN2Cc3c(ccc(Cl)c3Cl)N=C2N1 [Anagrelide]
scaled lipid accumulation score (library stock concentration: 7.8 mM): inactive: 0.141

C#CCCCCCCCCCCCC(O)CC(O)CO (configuration not stated) [Avocadyne]
scaled lipid accumulation score [1]: inactive: 0.005

CCCCCC(O)C=CC1C(O)CC(=O)C1CCCCCCC(=O)O (configuration not stated) [8-iso Prostaglandin E1]
scaled lipid accumulation score [3]: inactive: ≤ 0

CCCCCC(O)C=CC1C(O)CC(=O)C1CCCCCCC(=O)O [15(R)-Prostaglandin E1]
scaled lipid accumulation score [3]: inactive: ≤ 0

CCCCC[C@H](O)/C=C/[C@@H]1[C@@H](C/C=C\CCCC(=O)O)[C@@H](O)C[C@@H]1O [9a,11b-Prostaglandin F2]
scaled lipid accumulation score [3]: inactive: ≤ -0.021

CCCCC[C@H](O)/C=C/[C@@H]1[C@@H](C/C=C\CCCC(=O)O)[C@@H](O)C[C@@H]1O [11.beta.-Prostaglandin F2.alpha.]
scaled lipid accumulation score [3]: inactive: ≤ 0

CC(C)NCC(O)COc1ccc(COCCOC(C)C)cc1 (configuration not stated) [Bisoprolol hemifumarate salt]
scaled lipid accumulation score [1]: inactive: 0.146

CC(C)NCC(O)COc1ccc(COCCOC(C)C)cc1 (configuration not stated)
scaled lipid accumulation score [1]: inactive: ≤ 0

CC(C)NCC(O)COc1ccc(COCCOC(C)C)cc1 (configuration not stated) [Bisoprolol fumarate]
scaled lipid accumulation score: inactive: ≤ 0
scaled lipid accumulation score [2]: inactive: 0.026
scaled lipid accumulation score [7]: inactive: ≤ 0
scaled lipid accumulation score [1]: inactive: ≤ 0

CC(C)NCC(O)COc1ccc(COCCOC(C)C)cc1 (configuration not stated) [(?)-Bisoprolol hemifumarate]
scaled lipid accumulation score [1]: inactive: ≤ 0

Nc1nc(=S)c2ncn([C@@H]3O[C@H](CO)[C@@H](O)[C@H]3O)c2[nH]1 [Thioguanosine]
scaled lipid accumulation score: inactive: 0.076

CCCCC/C=C\CCCCCCCCCCCCC(=O)O [14(Z)-Eicosenoic Acid]
scaled lipid accumulation score [3]: inactive: ≤ 0

CC[C@@H]([C@H](C)O)n1ncn(-c2ccc(N3CCN(c4ccc(OC[C@@H]5CO[C@@](Cn6cncn6)(c6ccc(F)cc6F)C5)cc4)CC3)cc2)c1=O [Posaconazole]
scaled lipid accumulation score [1]: active: 0.869

CC(C)n1cnc2c(NCCc3ccc(O)cc3)nc(-c3csc4ccccc34)nc21 [StemRegenin 1 (SR1)]
scaled lipid accumulation score [1]: active: 0.919

Nc1nc(F)nc2c1ncn2[C@@H]1O[C@H](CO)[C@@H](O)[C@@H]1O
scaled lipid accumulation score [1]: inactive: 0.743

Nc1nc(F)nc2c1ncn2[C@@H]1O[C@H](CO)[C@@H](O)[C@@H]1O [Fludarabine]
scaled lipid accumulation score [1]: inactive: 0.781

N#CC(Cc1ccc(O)cc1)c1ccc(O)cc1 (configuration not stated) [2,3-bis (4-Hydroxyphenyl) Propionitrile]
scaled lipid accumulation score [3]: inactive: 0.019

CC(=O)c1cnc2ccc(-c3cc(Cl)c(O)c(Cl)c3)nc2c1N[C@H]1CC[C@H](CN(C)C)CC1
scaled lipid accumulation score [4]: inactive: 0.258
scaled lipid accumulation score [5]: inactive: 0.847
scaled lipid accumulation score [6]: inactive: 0.765

CC[C@H]1OC(=O)[C@H](C)[C@@H](O[C@H]2C[C@@](C)(OC)[C@@H](O)[C@H](C)O2)[C@H](C)[C@@H](O[C@@H]2O[C@H](C)C[C@H](N(C)C)[C@H]2O)[C@](C)(O)C[C@@H](C)/C(=N\OCOCCOC)[C@H](C)[C@@H](O)[C@]1(C)O [Roxithromycin]
scaled lipid accumulation score: inactive: ≤ 0
scaled lipid accumulation score [2]: inactive: ≤ 0
scaled lipid accumulation score [1]: inactive: ≤ 0 and inactive: ≤ -0.027

O=C([O-])[C@H]1/C(=C/CO)O[C@@H]2CC(=O)N21.[Li+] [Clavulanate lithium]
scaled lipid accumulation score (library stock concentration: 9.7 mM): inactive: ≤ 0

OC(c1ccccc1)C1CCN(CCc2ccccc2)CC1 (configuration not stated)
scaled lipid accumulation score [1]: inactive: 0.129

Nc1nc(=O)c2nc(CNc3ccc(C(=O)N[C@@H](CCC(=O)O)C(=O)O)cc3)cnc2[nH]1 [Folic acid]
scaled lipid accumulation score: inactive: 0.055
scaled lipid accumulation score [7]: inactive: ≤ 0
scaled lipid accumulation score [1]: inactive: ≤ 0

CC(=O)N[C@@H](CC(C)C)C(=O)O [Acetyl-l-leucine]
scaled lipid accumulation score [1]: inactive: ≤ 0

CC(=O)N[C@@H](CC(C)C)C(=O)O [N-Acetyl-L-leucine]
scaled lipid accumulation score: inactive: ≤ 0

CNC(=O)[C@@H](Cc1ccccc1)N(C)C(=O)[C@@H](Cc1ccc2ccccc2c1)N(C)C(=O)/C=C/CC(C)(C)N.CNC(=O)[C@@H](Cc1ccccc1)N(C)C(=O)[C@@H](Cc1ccc2ccccc2c1)N(C)C(=O)/C=C/CC(C)(C)N.O=C(O)/C=C/C(=O)O [Tabimorelin]
scaled lipid accumulation score [1]: active: 1.3

O=C(NCCS(=O)(=O)c1ccc(C(F)(F)F)cn1)c1ccc(Cl)cc1
scaled lipid accumulation score [2]: inactive: ≤ -0.009
scaled lipid accumulation score [1]: inactive: ≤ 0

CC(C)CC(=O)Nc1n[nH]c2c1CN(C(=O)C1CCN(C)CC1)C2(C)C
scaled lipid accumulation score [4]: inactive: ≤ 0
scaled lipid accumulation score [5]: inactive: 0.21
scaled lipid accumulation score [6]: inactive: 0.029
scaled lipid accumulation score [2]: inactive: 0.199
scaled lipid accumulation score [1]: inactive: ≤ 0 and inactive: 0.015
